Test results as given in paper PMC6549151 (2019).

Target: fibronectin (Homo sapiens, UniProt P02751)
Experiment: spectrofluorometry titration

B1: GPIIb/IIIa (protein)
chain 1: [gap - about 950 residues]
chain 2: GPNICTTRGVSSCQQCLAVSPMCAWCSDEALPLGSPRCDLKENLLKDNCAPESIEFPVSEARVLEDRPLSDKGSGDSSQVTQVSPQRIALRLRPDDSKNFSIQVRQVEDYPVDIYYLMDLSYSMKDDLWSIQNLGTKLATQMRKLTSNLRIGFGAFVDKPVSPYMYISPPEALENPCYDMKTTCLPMFGYKHVLTLTDQVTRFNEEVKKQSVSRNRDAPEGGFDAIMQATVCDEKIGWRNDASHLLVFTTDAKTHIALDGRLAGIVQPNDGQCHVGSDNHYSASTTMDYPSLGLMTEKLSQKNINLIFAVTENVVNLYQNYSELIPGTTVGVLSMDSSNVLQLIVDAYGKIRSKVELEVRDLPEELSLSFNATCLNNEVIPGLKSCMGLKIGDTVSFSIEAKVRGCPQEKEKSFTIKPVGFKDSLIVQVTFDCDCACQAQAEPNSHRCNNGNGTFECGVCRCGPGWLGSQCECSEEDYRPSQQDECSPREGQPVCSQRGECLCGQCVCHSSDFGKITGKYCECDDFSCVRYKGEMCSGHGQCSCGDCLCDSDWTGYYCNCTTRTDTCMSSNGLLCSGRGKCECGSCVCIQPGSYGDTCEKCPTCPDACTFKKECVECKKFDRGALHDENTCNRYCRDEIESVKELKDTGKDAVNCTYKNEDDCVVRFQYYEDSSGKSILYVVEEPECPKGPD
- Kd: 23.7 nM
